In the supplement of paper PMC6609913:
Structures can show the parent of a compound that is named as a salt. ± gives the standard deviation of the averaged measurements. Over roughly 1,300 compounds, “normalised cell viability” has its median near 1; the lowest 2% begin near 0.14. The list shows a part of the results.

Tested on: V-C8 (BRCA2-deficient hamster cells)
Test: normalised cell viability (fraction of plate median); higher = more viable cells (less toxic)
Settings: 5 µM
Summary of the method: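 Library drugs, held as 10 mM stocks in DMSO, were diluted to 5 μM in 100 μl medium and added to 96-well plates of V-C8 hamster cells, either lacking BRCA2 or with BRCA2 restored, 24 h after seeding. Plates ran for 3 days (screen 1) or 6 days (screen 2), alongside solvent-only wells. Viability came from a resazurin readout, median-plate normalised, as the mean of triplicate wells.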

Structure (SMILES) | normalised cell viability (treatment time: 3 days) | normalised cell viability (treatment time: 6 days)
CO[C@@]1(NC(=O)Cc2cccs2)C(=O)N2C(C(=O)O)=C(COC(N)=O)CS[C@@H]21 [Cefoxitin sodium salt] | 1.02 ± 0.033 | 1.01 ± 0.023
CC(=O)c1ccc2c(c1)N(CCCN1CCC(CCO)CC1)c1ccccc1S2 [Piperacetazine] | 0.84 ± 0.1 | 0.89 ± 0.079
O=C(CCCN1CCC(O)(c2ccc(Br)cc2)CC1)c1ccc(F)cc1 [Bromperidol] | 1.09 ± 0.19 | 0.955 ± 0.026
CCCCC(CC)CN1CN(CC(CC)CCCC)CC(C)(N)C1 (stereo not given) [Hexetidine] | 0.973 ± 0.094 | 1.04 ± 0.085
COc1cc2c(cc1OC)C(=O)C(CC1CCN(Cc3ccccc3)CC1)C2 (stereo not given) [Donepezil hydrochloride] | 0.957 ± 0.087 | 0.983 ± 0.011
CN1C(C(=O)Nc2ccccn2)=C(O)c2sccc2S1(=O)=O [Tenoxicam] | 1.03 ± 0.043 | 1.02 ± 0.019
Cc1ncc([N+](=O)[O-])n1CC(O)CCl (stereo not given) [Ornidazole] | 0.945 ± 0.069 | 1.34 ± 0.32
Cc1cccc(C)c1NC(=O)C1CCCCN1C (stereo not given) [Mepivacaine hydrochloride] | 0.981 ± 0.031 | 0.988 ± 0.053
C=C[C@H]1CN2CC[C@H]1C[C@@H]2[C@@H](O)c1ccnc2ccc(OC)cc12 [Quinidine hydrochloride monohydrate] | 0.997 ± 0.0082 | 0.876 ± 0.16
C[C@]12CC[C@H]3C(=CCc4cc(O)ccc43)[C@@H]1CCC2=O [Equilin] | 1.03 ± 0.045 | 0.974 ± 0.031
CN(C)CCC=C1c2ccccc2CCc2ccccc21 [Amitryptiline hydrochloride] | 0.856 ± 0.018 | 0.893 ± 0.051
Cc1ccnc2c1NC(=O)c1cccnc1N2C1CC1 [Nevirapine] | 0.942 ± 0.023 | 0.994 ± 0.039
Cc1[nH]c(=O)c(C#N)cc1-c1ccncc1 [Milrinone] | 1.2 ± 0.26 | 0.981 ± 0.038
CS(=O)(=O)c1ccc(C2=C(c3ccccc3)C(=O)OC2)cc1 [Rofecoxib] | 1.02 ± 0.065 | 1.02 ± 0.016
Cn1c(=O)c2[nH]cnc2n(C)c1=O [Aminophylline] | 1.08 ± 0.035 | 1 ± 0.042
COc1ccc(-c2cc(=O)c3c(O)cc(O[C@@H]4O[C@H](CO[C@@H]5O[C@@H](C)[C@H](O)[C@@H](O)[C@H]5O)[C@@H](O)[C@H](O)[C@H]4O)cc3o2)cc1O [Diosmin] | 1.04 ± 0.065 | 1.01 ± 0.014
CCCCCCCN(CC)CCCC(O)c1ccc(NS(C)(=O)=O)cc1 (stereo not given) [Ibutilide fumarate] | 1.02 ± 0.0081 | 0.983 ± 0.025
c1ccc2[nH]c(-c3cscn3)nc2c1 [Tiabendazole] | 1.07 ± 0.041 | 1.02 ± 0.028

Structure (SMILES) | normalised cell viability (treatment time: 3 days) | normalised cell viability (treatment time: 6 days)
CN1CC2c3ccccc3Oc3ccc(Cl)cc3C2C1 (stereo not given) [Asenapine maleate] | 0.92 ± 0.083 | 0.97 ± 0.11
CC1CS(=O)(=O)CCN1/N=C/c1ccc([N+](=O)[O-])o1 (stereo not given) [Nifurtimox] | 1.04 ± 0.077 | 1 ± 0.06
C[C@]12CC[C@@H]3c4ccc(O)cc4CC[C@H]3[C@@H]1CCC2=O [Estrone] | 0.997 ± 0.015 | 1.01 ± 0.028
COc1cc(C(=O)NC2CCCNC2)cc(OC)c1OC (stereo not given) [Troxipide] | 1.03 ± 0.065 | 1 ± 0.022
CN(C)[C@@H]1C(O)=C(C(N)=O)C(=O)[C@@]2(O)C(O)=C3C(=O)c4c(O)ccc(Cl)c4[C@@](C)(O)[C@H]3C[C@@H]12 [Chlortetracycline hydrochloride] | 1.1 ± 0.034 | 1.08 ± 0.031
CC(=O)N(CC(C)C(=O)O)c1c(I)cc(I)c(N)c1I (stereo not given) [Iocetamic acid] | 1.02 ± 0.023 | 0.976 ± 0.035
CCCCC(C)(O)C/C=C/[C@H]1[C@H](O)CC(=O)[C@@H]1CCCCCCC(=O)OC (mixture of isomers) [Misoprostol] | 1.03 ± 0.024 | 0.925 ± 0.028
CNCCC(Oc1ccccc1OC)c1ccccc1 (stereo not given) [Nisoxetine hydrochloride] | 1.08 ± 0.063 | 1.05 ± 0.064
COc1ccccc1O [Guaiacol] | 1.014 ± 0.0094 | 1.06 ± 0.094
O=C(O)CCC(=O)Nc1ccc(S(=O)(=O)Nc2nccs2)cc1 [Succinylsulfathiazole] | 0.998 ± 0.016 | 1.03 ± 0.069
COc1cnc(NS(=O)(=O)c2ccc(N)cc2)nc1 [Sulfameter] | 1.07 ± 0.025 | 1.02 ± 0.093
Cc1cccc(CN2CCN(C(c3ccccc3)c3ccc(Cl)cc3)CC2)c1 (stereo not given) [Meclozine dihydrochloride] | 1.09 ± 0.11 | 1.07 ± 0.026
CCOC(=O)C1=C[C@]2(CC)CCCN3CCc4c(n1c1ccccc41)[C@@H]32 [Vinpocetine] | 1.12 ± 0.093 | 1.14 ± 0.066
COc1ccc2cc([C@@H](C)C(=O)O)ccc2c1 [(R) -Naproxen sodium salt] | 0.91885 ± 0.00085 | 0.978 ± 0.043
Nc1nc(=O)c2c([nH]1)NC[C@@H](CNc1ccc(C(=O)N[C@@H](CCC(=O)O)C(=O)O)cc1)N2C=O [Folinic acid calcium salt] | 1.05 ± 0.036 | 1.11 ± 0.06
CCCCC(CC)CNC(=N)NC(=N)NCCCCCCNC(=N)NC(=N)NCC(CC)CCCC (stereo not given) [Alexidine dihydrochloride] | 0.124 ± 0.0044 | 0.132 ± 0.0043
COC(=O)[C@@H]1[C@H]2C[C@H]3c4[nH]c5ccccc5c4CCN3C[C@@H]2CC[C@@H]1O [Yohimbine hydrochloride] | 1.08 ± 0.11 | 0.996 ± 0.031
